According to paper PMC4336329 (PLoS ONE, 2015):
Hit rate of the full screen: of about 310,000 compounds, about 14,000 (4.5%) showed an effect of 50% or more. Effects have a minus sign here. The list shows a part of the results. Where a SMILES comes first, the peptide text is derived from it. The star is where a group is joined. Boc = CC(C)(C)OC(=O)*
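Also: peak tail current of the secondary pulse compared with the same well before compound.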

Each compound was assayed against human ether-à-go-go-related gene (hERG) potassium channel (human, UniProt Q12809) (assay: primary screen, population patch clamp on CHO cells stably expressing hERG).
Chain of human ether-à-go-go-related gene (hERG) potassium channel (Q12809 whole entry, looked up): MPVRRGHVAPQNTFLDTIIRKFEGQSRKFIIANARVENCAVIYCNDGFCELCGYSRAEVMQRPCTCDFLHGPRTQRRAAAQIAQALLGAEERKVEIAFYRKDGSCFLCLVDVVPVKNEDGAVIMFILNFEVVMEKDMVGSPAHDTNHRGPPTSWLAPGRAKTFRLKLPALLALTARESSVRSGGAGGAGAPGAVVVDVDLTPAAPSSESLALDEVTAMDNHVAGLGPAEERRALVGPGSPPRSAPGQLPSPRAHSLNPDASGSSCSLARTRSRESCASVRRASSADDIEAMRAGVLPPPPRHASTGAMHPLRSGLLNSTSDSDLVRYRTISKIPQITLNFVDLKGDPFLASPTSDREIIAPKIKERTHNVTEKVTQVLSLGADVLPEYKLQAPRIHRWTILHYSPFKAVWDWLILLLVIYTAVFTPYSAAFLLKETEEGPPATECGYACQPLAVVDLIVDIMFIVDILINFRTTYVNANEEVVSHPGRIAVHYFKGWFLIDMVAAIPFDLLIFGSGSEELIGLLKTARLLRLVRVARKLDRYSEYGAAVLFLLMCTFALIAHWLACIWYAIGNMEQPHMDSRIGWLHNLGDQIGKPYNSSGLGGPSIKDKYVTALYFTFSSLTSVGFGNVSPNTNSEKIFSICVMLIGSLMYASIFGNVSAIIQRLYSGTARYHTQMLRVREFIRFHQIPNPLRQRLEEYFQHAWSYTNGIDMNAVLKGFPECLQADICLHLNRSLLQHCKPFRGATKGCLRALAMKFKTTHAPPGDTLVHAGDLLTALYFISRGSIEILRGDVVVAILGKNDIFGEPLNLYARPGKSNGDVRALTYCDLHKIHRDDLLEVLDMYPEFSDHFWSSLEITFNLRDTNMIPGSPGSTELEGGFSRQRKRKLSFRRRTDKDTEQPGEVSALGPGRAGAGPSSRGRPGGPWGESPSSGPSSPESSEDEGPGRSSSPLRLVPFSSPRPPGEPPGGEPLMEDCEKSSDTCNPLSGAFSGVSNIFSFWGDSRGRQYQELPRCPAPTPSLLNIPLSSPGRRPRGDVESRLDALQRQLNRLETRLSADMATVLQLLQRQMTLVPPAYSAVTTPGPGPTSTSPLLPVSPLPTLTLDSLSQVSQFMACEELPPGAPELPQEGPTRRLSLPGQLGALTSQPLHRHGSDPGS
With O=C(CSc1c2c(nc3cc(Cl)ccc13)CCCC2)NCCN1CCOCC1 the “hERG current change (%, negative = inhibition) at 10uM” value was 3.58%.
With COC(=O)CSc1nnc(SCc2ccc(Cl)cc2)s1 the “hERG current change (%, negative = inhibition) at 10uM” value was -0.477%.
For CCN(CC)C(=O)CSc1nnc([C@@H](N)C(C)C)o1.Cl, the “hERG current change (%, negative = inhibition) at 10uM” value was 20.2%.
COc1ccccc1CNC(=O)CN(c1ccc(C)cc1)S(=O)(=O)c1c(C)n[nH]c1C was tested, and the “hERG current change (%, negative = inhibition) at 10uM” value was -1.97%.
O=C(CCCC(=O)OCC(=O)NC1CCCC1)Nc1ccccn1 was tested, and the “hERG current change (%, negative = inhibition) at 10uM” value was -10.9%.
For O=C(O)CCCN1C(=O)NC2NC(=O)NC21 (stereo not drawn), the “hERG current change (%, negative = inhibition) at 10uM” value was 6.07%.
In the case of CCC(=O)N1CCc2cc(S(=O)(=O)N3CCN(c4cc(C)ccc4C)CC3)ccc21, the “hERG current change (%, negative = inhibition) at 10uM” value is reported as 9.5%.
With O=C1c2ccccc2C(=O)N1CCSc1nncs1 the “hERG current change (%, negative = inhibition) at 10uM” value was -6.79%.
Cc1ccc(-n2c(SCC(=O)NCC3CCCO3)nc3c(c2=O)SCC3)cc1 (stereo not drawn) was tested, and the “hERG current change (%, negative = inhibition) at 10uM” value was -28.8%.
In the case of Cc1ccc(NCc2nnc(SCC(=O)Nc3ccccc3)n2CC2CCCO2)c(C)c1 (stereo not drawn), the “hERG current change (%, negative = inhibition) at 10uM” value is reported as -0.0882%.
With Cc1ccc(NC(=O)CS(=O)CC(=O)NC2CCN(Cc3ccccc3)CC2)c(C)c1 (stereo not drawn) the “hERG current change (%, negative = inhibition) at 10uM” value was -3.54%.
For COc1ccc([N+](=O)[O-])c(OC)c1C(=O)NC(=O)Nc1nc(C)nc(C)n1, the “hERG current change (%, negative = inhibition) at 10uM” value was -4.9%.
In the case of CCOC(=O)C(Cc1ccc(O)cc1)NC(=O)CNC(=O)C1CCCN1C(=O)OC(C)(C)C (stereo not drawn) (Boc-Pro-Gly-Tyr-OEt; configuration not given here), the “hERG current change (%, negative = inhibition) at 10uM” value is reported as 21.5%.
For C=CCSc1nc2sc3c(c2c(=O)[nH]1)CC(C)(CC)OC3 (stereo not drawn), the “hERG current change (%, negative = inhibition) at 10uM” value was 19%.
With C/C(=N\NC(=O)C(N)=O)c1ccc(NC(=O)c2cccs2)cc1 the “hERG current change (%, negative = inhibition) at 10uM” value was 23.1%.
CCOCCCNC(=O)c1[nH]c(C)c(C(C)=O)c1C was tested, and the “hERG current change (%, negative = inhibition) at 10uM” value was 12.2%.
In the case of CCOC(=O)c1nnn(-c2nn3nnnc3c3ccccc23)c1C, the “hERG current change (%, negative = inhibition) at 10uM” value is reported as -11.5%.
With O=C(Cc1ccccc1)N1CCc2[nH]nc(-c3ccccc3)c2C1 the “hERG current change (%, negative = inhibition) at 10uM” value was -8.6%.
With Cc1ccc(NC(=O)COC(=O)Cc2csc(-c3ccc(Cl)cc3)n2)cc1C the “hERG current change (%, negative = inhibition) at 10uM” value was -18.3%.
For COC(=O)[C@@H]1C[C@H]2CC[C@H](O)C[C@H]2N1Cc1ccc(C(F)(F)F)cc1, the “hERG current change (%, negative = inhibition) at 10uM” value was 6.02%.
O=C(COC(=O)CCC(=O)c1ccc(F)cc1)Nc1ccc2[nH]c(=O)[nH]c2c1 was tested, and the “hERG current change (%, negative = inhibition) at 10uM” value was -3.65%.
CC(=O)Nc1nnc(SCC(=O)Nc2ccc3c(c2)OCCO3)s1 was tested, and the “hERG current change (%, negative = inhibition) at 10uM” value was 13.3%.
In the case of O=c1c2ccccc2n2c(-c3ccc(C(F)(F)F)cc3)nnc2n1Cc1ccccc1, the “hERG current change (%, negative = inhibition) at 10uM” value is reported as 0.707%.
With CCOC(=O)n1c(=O)n(Cc2cccc(C)c2)c2ccccc21 the “hERG current change (%, negative = inhibition) at 10uM” value was -14%.
For O=C(CCn1c(=O)c2ccccc2n(Cc2ccccc2)c1=O)NCc1ccc2c(c1)OCO2, the “hERG current change (%, negative = inhibition) at 10uM” value was -4.33%.
For COc1cccc(/C=N/n2nnnc2N)c1OCc1ccccc1Cl, the “hERG current change (%, negative = inhibition) at 10uM” value was 0.0246%.
CS(=O)(=O)N1CCN(C/C=C/c2ccccc2)CC1 was tested, and the “hERG current change (%, negative = inhibition) at 10uM” value was 7.98%.
For CCOc1cc(/C=N/NC(=O)c2cccnc2)ccc1OC(=O)c1ccco1, the “hERG current change (%, negative = inhibition) at 10uM” value was 25.4%.
O=C(Nc1ccc([N+](=O)[O-])cc1)c1ccc(S(=O)(=O)N2CCCC2)cc1 was tested, and the “hERG current change (%, negative = inhibition) at 10uM” value was 13%.
For C=CCN1C(=O)SC(Cc2cccc(OC)c2O)C1=O (stereo not drawn), the “hERG current change (%, negative = inhibition) at 10uM” value was -2.93%.
For Cc1ccc(S(=O)(=O)N(C)C)cc1NC(=O)C1CCCCN1S(=O)(=O)c1ccccc1 (stereo not drawn), the “hERG current change (%, negative = inhibition) at 10uM” value was -16.5%.
For O=S(=O)(Nc1ccc2c(c1)nc1n2CCN(Cc2ccccc2)C1)c1ccc(F)cc1, the “hERG current change (%, negative = inhibition) at 10uM” value was -50.4%.
With Cc1ccc(Nc2nnc(SCC3CCCCO3)s2)cc1 (stereo not drawn) the “hERG current change (%, negative = inhibition) at 10uM” value was -2.19%.
For CCn1cc(C(=O)Nc2ccc3c(c2)OCCO3)c2cc(OC)c(OC)cc2c1=O, the “hERG current change (%, negative = inhibition) at 10uM” value was 8.76%.
COc1cc(NC(=O)Cc2cccs2)c(C(=O)O)cc1OC was tested, and the “hERG current change (%, negative = inhibition) at 10uM” value was 21.7%.
With CC1C(=O)Nc2ccccc2N1C(=O)c1ccc(Cl)c(Cl)c1 (stereo not drawn) the “hERG current change (%, negative = inhibition) at 10uM” value was 6.39%.
For CC(Oc1ccccc1)C(=O)Nc1nc(-c2ccncc2)cs1 (stereo not drawn), the “hERG current change (%, negative = inhibition) at 10uM” value was 2.28%.
With CCOC(=O)c1sc(Nc2nc3ccc(OC)cc3s2)cc1C the “hERG current change (%, negative = inhibition) at 10uM” value was -0.84%.
In the case of CCOC(=O)C1C(=O)NCC1c1ccccc1 (stereo not drawn), the “hERG current change (%, negative = inhibition) at 10uM” value is reported as 7.58%.
With Cc1nnc(SCC(=O)N2CCCCC2)n1CC1CCCO1 (stereo not drawn) the “hERG current change (%, negative = inhibition) at 10uM” value was 4.4%.
O=C(CCc1nc(-c2ccccc2F)no1)NCCN1CCOCC1 was tested, and the “hERG current change (%, negative = inhibition) at 10uM” value was 6.22%.
For CCCCN(C(=O)Oc1ccccc1)C1CCS(=O)(=O)C1 (stereo not drawn), the “hERG current change (%, negative = inhibition) at 10uM” value was -9.61%.
In the case of CCN(CC)c1ccc(C=Nc2ccccc2)c(O)c1, the “hERG current change (%, negative = inhibition) at 10uM” value is reported as 1.65%.
With COc1ccc(CCNC(=O)CCS(=O)(=O)c2ccc(C)cc2)cc1OC the “hERG current change (%, negative = inhibition) at 10uM” value was -15.2%.
With CN(c1ccccc1)P(=O)(N(C)c1ccccc1)N(C)c1ccccc1 the “hERG current change (%, negative = inhibition) at 10uM” value was -37.1%.
In the case of O=C(Nc1ccccc1Cl)c1cccs1, the “hERG current change (%, negative = inhibition) at 10uM” value is reported as -7.13%.
CCOc1cc(/C=N\NC(=O)CC(=O)NCCc2ccccc2)ccc1O was tested, and the “hERG current change (%, negative = inhibition) at 10uM” value was 1.94%.
COc1ccc2occ(NC(C)=O)c2c1 was tested, and the “hERG current change (%, negative = inhibition) at 10uM” value was -1.13%.
For Cn1c(=O)n(CC(=O)N2CCOCC2)c2ccccc21, the “hERG current change (%, negative = inhibition) at 10uM” value was 3.76%.
For COc1cccc(/C=C(/C(=O)OCC(N)=O)c2ccccc2)c1, the “hERG current change (%, negative = inhibition) at 10uM” value was -21.8%.
O=C(Nc1ccc(F)cc1)c1ccccc1CC[N+](=O)[O-] was tested, and the “hERG current change (%, negative = inhibition) at 10uM” value was -0.239%.
With O=C(NCc1ccc(F)cc1)C1CCCN(C(=O)NCc2ccccc2)C1 (stereo not drawn) the “hERG current change (%, negative = inhibition) at 10uM” value was -13%.
With Cc1ncc(CC(=O)n2cc(C(=O)c3cc(Cl)ccc3O)cn2)s1 the “hERG current change (%, negative = inhibition) at 10uM” value was -23.2%.
In the case of CN1CCN(C(=O)C2(NC(=O)Nc3cccc(F)c3)CCCCC2)CC1, the “hERG current change (%, negative = inhibition) at 10uM” value is reported as -17.9%.
In the case of CN(CC(=O)Nc1ccc(F)cc1)C(=O)CN1C(=O)c2ccccc2C1=O, the “hERG current change (%, negative = inhibition) at 10uM” value is reported as -18%.
In the case of C/C(N)=C(/C#N)C(=O)CSc1nc2ccccc2c(=O)n1Cc1ccc(F)cc1, the “hERG current change (%, negative = inhibition) at 10uM” value is reported as 7.48%.
In the case of Cc1ccc(SC(C)c2nc(-c3ccccc3)no2)cc1 (stereo not drawn), the “hERG current change (%, negative = inhibition) at 10uM” value is reported as 5.66%.
